# Source: PubChem BioAssay AID488969 (Vanderbilt High Throughput Screening Facility, 2010)
# Over roughly 110,000 compounds, “z-score” has its median near -0.1; the highest 2% begin near 2. This is one part of the list. Active and inactive are the calls of the source.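 The calls were made as follows: active = z-score in the third read window above 3 or below -3; inactive = the rest.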
# Molecular target: Metabotropic glutamate receptor 8 (Rattus norvegicus) (UniProt P70579)
# Experiment: mGluR8 Gi/Go-coupled signaling modulation – cell-based, rat, thallium flux, HTS, primary screen (AID 488969)
# Conditions: HEK293 rat mGluR8, GIRK (G protein-gated inwardly rectifying potassium channel) thallium flux, FluoZin2; at 10 µM; stronger effect = higher value; submaximal glutamate (EC20) added with thallium
# Sequence of UniProt P70579 (P70579 whole entry, looked up): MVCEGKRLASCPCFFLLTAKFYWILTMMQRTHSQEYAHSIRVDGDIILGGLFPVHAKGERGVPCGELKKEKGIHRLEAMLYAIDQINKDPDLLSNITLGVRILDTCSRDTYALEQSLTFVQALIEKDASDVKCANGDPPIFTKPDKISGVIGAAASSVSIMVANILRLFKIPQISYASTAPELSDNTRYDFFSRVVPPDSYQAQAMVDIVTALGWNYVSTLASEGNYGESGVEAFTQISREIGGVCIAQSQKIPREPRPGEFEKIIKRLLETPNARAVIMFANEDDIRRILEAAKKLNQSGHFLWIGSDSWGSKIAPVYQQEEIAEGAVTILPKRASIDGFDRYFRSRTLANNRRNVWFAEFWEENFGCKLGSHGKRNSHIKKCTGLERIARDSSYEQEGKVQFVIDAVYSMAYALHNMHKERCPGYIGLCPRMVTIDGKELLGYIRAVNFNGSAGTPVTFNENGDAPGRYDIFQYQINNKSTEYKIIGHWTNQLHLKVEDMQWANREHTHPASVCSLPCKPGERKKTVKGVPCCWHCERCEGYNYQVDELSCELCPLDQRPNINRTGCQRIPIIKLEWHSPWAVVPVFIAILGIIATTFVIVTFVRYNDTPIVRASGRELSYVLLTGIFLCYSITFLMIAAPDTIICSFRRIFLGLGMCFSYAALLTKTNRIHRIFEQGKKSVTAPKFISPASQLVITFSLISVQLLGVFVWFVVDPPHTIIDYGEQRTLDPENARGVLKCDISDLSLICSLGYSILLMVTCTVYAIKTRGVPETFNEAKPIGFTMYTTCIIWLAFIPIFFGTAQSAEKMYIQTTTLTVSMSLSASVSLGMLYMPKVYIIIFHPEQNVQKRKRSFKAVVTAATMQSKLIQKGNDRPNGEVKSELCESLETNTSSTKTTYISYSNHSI
row,Compound,z-score
1,O=C(Nc1c(-c2ccccc2)nc2ccc(Cl)cn12)c1cccs1,0.806
2,O=C(COC(=O)CCCSc1nc2ccccc2[nH]1)Nc1ccc(Cl)cc1,-0.754
3,Oc1c(Cl)cc(Cl)cc1CNc1ccc(Br)cn1,0.354
4,O=C(CN1C(=O)CCS(=O)(=O)c2ccccc21)Nc1cccc(Cl)c1,0.847
5,S=C(NC1CCCCC1)N(CCc1nc2ccccc2[nH]1)C1CCCC1,-1.02
6,CN(C)CCCN(C(=O)c1ccc2c(c1)CCCC2)c1nc2c(F)cccc2s1,-0.121
7,Cc1nnc(SCC(=O)N2CCc3ccccc32)n1-c1ccccc1,0.0722
8,CCOc1ccc(NS(=O)(=O)c2ccc(NC(C)=O)c(OC)c2)cc1,0.00898
9,CCCCN(C)C(=O)C(Cc1ccccc1)NS(=O)(=O)c1ccc2c(c1)c(=O)n(C)c(=O)n2C (centres undefined),0.0206
10,COc1cccc(C(=O)CN2CCC(NC(=O)NC3CCCCC3)CC2)c1,0.00206
11,O=C(NCCc1c[nH]c2ccccc12)C(=O)NCC(c1ccco1)N1CCN(c2ccc(F)cc2)CC1 (centres undefined),-0.165
12,Cc1oc(-c2ccccc2F)nc1CS(=O)(=O)CC(=O)N1CCCCCC1,-0.805
13,COc1ccc(CNC(=O)C(C#N)c2nc3ccccc3nc2N2CCCC2)cc1 (centres undefined),active: -4.86
14,Cc1cccn2c(=O)c3cc(C(=O)N4COCC4(C)C)n(C)c3nc12,-0.119
15,O=C(NCc1ccccc1)c1ccc(Cl)cc1[N+](=O)[O-],-0.0935
16,Nc1c(C(=O)Nc2ccccc2)sc2nc3c(c(-c4ccco4)c12)CCC3,-0.165
17,CCCc1cc(Nc2ccccc2OCC)n2ncnc2n1,-0.871
18,Cc1ccc(CSCC(=O)N2CCN(c3ccc(F)cc3)CC2)cc1,-0.408
19,CC(C)Cn1c(SCC(=O)c2c(N)n(C)c(=O)n(C)c2=O)nc2ccccc21,-0.371
20,CCn1c(SCC(=O)Nc2ccc3c(c2)oc2ccccc23)nnc1-c1ccc(N)cc1,-0.0175
21,COc1ccc(NC(=O)C(C)N(c2ccc(C)cc2)S(C)(=O)=O)c(OC)c1 (centres undefined),-0.397
22,COc1ccc(-c2cc(C(F)(F)F)n3nc(C(=O)NCc4ccco4)c(Cl)c3n2)cc1,0.638

row,Compound,z-score
1,O=C(Nc1ccc(CN2CCOCC2)cc1)c1ccc(-c2cc(Cl)ccc2Cl)o1,-0.386
2,O=C(Nc1ccc(OC(F)F)cc1)Nc1cccc(C(F)(F)F)c1,1.31
3,COc1ccc(Oc2nc3ccccc3nc2C(F)(F)F)cc1,-0.00913
4,O=C(O)c1cnn2c1NC(c1ccc(F)cc1)CC2C(F)(F)F (centres undefined),-1.57
5,O=C(NNC(=O)c1cccnc1)Nc1ccccc1,-0.111
6,O=S(=O)(Nc1ccc(S(=O)(=O)N2CCOCC2)cc1)c1ccccc1,0.605
7,CC(C)OCCCNC(=O)Cn1nc(-c2ccccc2)ccc1=O,0.151
8,O=C(O)C1C(c2ccccc2)C(C(=O)OCCCO)C1c1ccccc1 (centres undefined),-0.392
9,Cc1ccc(OCCNC(=O)c2cc(-n3cnnc3)ccc2Cl)cc1C,-0.148
10,O=c1oc(-c2cccs2)nc2ccccc12,-0.0468
11,Cc1cc(-n2c(C)cc(C(=O)CSc3nnc4sc5ccccc5n34)c2C)no1,-0.911
12,CCOc1ccc(N2C(=O)CC(SC(=NC)Nc3ccc(F)cc3)C2=O)cc1 (centres undefined),active: 3.7
13,CCOC(=O)CCCCC(=O)c1[nH]c(=O)[nH]c1CSc1nc(-c2ccccc2)c(C#N)c(=O)[nH]1,-0.123
14,OCCNC(=S)NCCc1ccccc1,-0.0551
15,Cc1cc(C)n(-c2cc(-c3ccccc3)nc(C)n2)n1,0.233
16,O=C(CCSCCc1ccncc1)NCCCN1CCOCC1,-0.634
17,O=C1CSC(c2ccccc2)N1c1nc(-c2ccc(Cl)cc2Cl)cs1 (centres undefined),-0.0976
18,CCOC(=O)c1cc(-c2ccccc2)sc1NC(=O)c1ccc(OC)c(OC)c1,-0.22
19,C/C(CC(=O)Nc1ccccn1)=N\NC(=O)c1ccc(C)cc1,0.0861
20,O=C(Cc1nnc(NC(=O)Nc2ccccc2)s1)NCc1ccccc1,-0.16
21,Fc1ccc(-c2nnc(NC3=NCCCCC3)o2)cc1,-0.435
22,CCN1/C(=C/c2ccc3cccc(C)c3[n+]2CC)Sc2ccccc21,-1.51

row,Compound,z-score
1,OCCCc1nc2n(n1)C(c1cccs1)C=C(c1ccc(Br)cc1)N2 (centres undefined),active: 5.08
2,O=C1CN(C(=O)c2ccccc2F)c2ccccc2N1,0.252
3,COc1cc(/C=C2\SC(c3ccc(C)cc3)=NC2=O)ccc1O,-0.769
4,C=CCc1ccc(OCCOCCOc2ccccc2[N+](=O)[O-])c(OC)c1,-0.417
5,COc1ccccc1C(=O)NCC1CCN(c2ccc(S(=O)(=O)N3CCOCC3)cc2)CC1,-0.35
6,COc1ccc(CCNC(=O)Cn2cnc3c(nnn3Cc3ccccc3F)c2=O)cc1OC,-0.0957
7,COc1ccc(/C=C/C(=O)Nc2nc(C)cc(C)n2)cc1OC,0.186
8,COc1ccccc1NS(=O)(=O)c1cc(C)ccc1C,-0.732
9,CC1(C)N=C(N)NC(Nc2ccc(Br)cc2)=N1,-0.00115
10,CC(C(=O)NCc1ccco1)n1cc(C(=O)c2ccco2)c2ccccc21 (centres undefined),-0.366
11,CCNC(=S)N/N=C/c1cn(Cc2ccccc2F)c2ccccc12,-0.0856
12,CC(C)N(C(=O)Nc1ccc2nccnc2c1)C(C)C,-0.935
13,COC(=O)Cc1[nH]nc2c1C1(C(=O)N(Cc3ccc(Cl)cc3)c3ccccc31)C(C#N)=C(N)O2 (centres undefined),-0.138
14,CCCCOC(=O)n1c(=O)oc2cc(S(=O)(=O)N3CCCCC3)ccc21,-0.244
15,Cc1ccc(Oc2nc3ccccn3c(=O)c2/C=C(\C#N)C(=O)Nc2c(C)n(C)n(-c3ccccc3)c2=O)cc1,-0.0585
16,COc1ccc(OC)c2c1sc(=NC(=O)C(C)(C)C)n2C,0.232
17,Cc1ccc(-c2nc3ccccc3c(C(=O)NCc3cccs3)c2C)cc1,-0.236
18,CC(C)c1nnc(SCC(=O)N2CCOCC2)n1C,-0.0423
19,Cc1cc(S(=O)(=O)Nc2ccc(F)cc2)c(C)s1,-0.352
20,CC(C)(C)NC(=O)Cn1cnc([N+](=O)[O-])n1,-0.161
21,Cc1ccc(S(=O)(=O)c2c(C)nn(-c3ccccc3)c2OC(=O)c2ccc(Br)o2)cc1,0.171
22,COC(=O)c1ccccc1NC(=O)CSc1nnc(C(CO)NC(=O)c2ccccc2Cl)n1C (centres undefined),-0.238

row,Compound,z-score
1,Cc1csc(SCCn2c(Br)nc3c2c(=O)[nH]c(=O)n3C)n1,0.73
2,CCN(CC)CCNC(=O)CCc1n[nH]c(=O)c2ccccc12,-0.625
3,CC(/C=N/n1c(-c2ccco2)n[nH]c1=S)=C\c1ccco1,0.1
4,Cc1cc(Oc2ccc(Cl)cc2)nc(SCC(=O)c2ccccc2)n1,-0.297
5,CCOC(=O)c1sc(NC(=O)c2cc3n(n2)C(C(F)(F)F)CC(c2ccccc2)N3)c(C(=O)OCC)c1C (centres undefined),0.271
6,CCn1cc(/C=N\NC(=O)Cc2ccc(Cl)cc2)cn1,-0.396
7,COc1ccc(N(C)C(=O)c2ccc3nc(-c4ccccc4)c(-c4ccccc4)nc3c2)cc1,0.247
8,COCCNC(=O)Nc1ccc2nc(-c3cccs3)c(-c3cccs3)nc2c1,-0.235
9,O=C(NCCCCC(NC(=O)C1CCCCC1)C(=O)O)c1ccccc1 (centres undefined),1.57
10,CN1CCN(c2cc(=O)n(C3CCCCC3)c(=O)[nH]2)CC1,-0.0935
11,CC(C)C(=O)Nc1cccc(-c2cn3ccsc3n2)c1,-1.08
12,COC(=O)c1sccc1-n1cccc1C(=O)C(=O)N1CCCC1,-0.405
13,Cc1nn(-c2ccccc2)c(N)c1C(O)(C(F)(F)F)C(F)(F)F,-0.777
14,Cc1nn(C)c(C)c1NC(=O)c1ccc(Cl)cc1,0.387
15,Cc1ccc(C)c(OCC(=O)Nc2ccc(S(=O)(=O)N3CCN(C)CC3)cc2)c1,0.121
16,Cc1cc(C)cc(NC(=O)C(NCC2CCCO2)c2ccccc2)c1 (centres undefined),0.0179
17,Cc1ccc(NS(=O)(=O)c2ccc(OCC(=O)NCc3ccco3)cc2)cc1,-0.0298
18,Cn1ncc(Cl)c(Oc2ccccc2)c1=O,0.0121
19,CCOC(=O)c1ccc(NC(=S)NCCCN2CCCCC2)cc1,0.0224
20,NS(=O)(=O)c1ccc(N=Nc2c(-c3ccccc3)[nH]n(-c3nc(-c4ccccc4)cs3)c2=O)cc1,-0.151
21,Cc1ccc(-c2nn(CC(=O)O)c(=O)c3ccccc23)cc1,-0.699
22,CN(NC(=O)COc1ccccc1)c1ccccc1,0.0226

row,Compound,z-score
1,Cc1c(Cl)cccc1NC(=S)/C(=C(\[O-])c1ccc(Cl)s1)[n+]1ccccc1,2.24
2,CCCCC(=O)Nc1cccc(-c2nn3c(C)nnc3s2)c1,-0.93
3,O=C(CCCSc1nc2ccccc2[nH]1)NC(c1ccccc1)c1ccccc1,-0.924
4,CCCCc1ccc(-c2csc(/C(C#N)=C\c3ccco3)n2)cc1,-0.0195
5,CC(C)C1N=C2c3ccccc3N=C(SCc3cc(=O)n4cc(Cl)ccc4n3)N2C1=O (centres undefined),0.849
6,O=C(NCC1CCCO1)C1CCN(S(=O)(=O)c2cccc3nonc23)CC1 (centres undefined),0.153
7,CCCCc1cc(=O)oc2c(CN3CCCC3)c(O)c(Cl)cc12,0.402
8,COc1ccc(NC(=S)NCCSc2ccc(C)cc2)c(OC)c1,-0.403
9,CC(C)CC(=O)Nc1nnc(-c2ccco2)s1,-0.113
10,Cc1ccc(S(=O)(=O)c2ccc(C)cc2)cc1,-0.487
11,c1ccc(-c2c[nH]c3[n+]2CCCCC3)cc1,-0.144
12,C=CCN(CC=C)CCOc1ccccc1,-0.151
13,Cc1csc(NC(=O)CSc2nnnn2C)n1,-0.0645
14,Cc1c(Cl)cnc(NC(=O)COC(=O)c2cccc(S(=O)(=O)N3CCc4ccccc4C3)c2)c1Cl,-0.11
15,Cc1c(N=C2NC(=O)C(CC(=O)Nc3ccc(Cl)cc3)S2)c(=O)n(-c2ccccc2)n1C (centres undefined),-0.0732
16,O=C1CN=CN=CN1c1ccc(Cl)cc1Cl,-0.115
17,CC1=C(C#N)C(c2cccnc2)C2=C(CC(c3ccc(Cl)cc3)CC2=O)N1 (centres undefined),0.137
18,COc1cccc(/C=N/N2C(=O)NC3(CCCCC3)C2=O)c1O,-0.173
19,CC1(C)CC(=O)c2cc(C(=O)N3CCN(CCO)CC3)c(=O)n(-c3ccc(Cl)cc3)c2C1,-0.773
20,NC(=O)N/N=C/c1cc(Br)ccc1OCC(=O)NCc1ccccc1,-0.356
21,Cc1ccnc(NC(=O)C2CCCN(S(=O)(=O)c3cnc[nH]3)C2)c1 (centres undefined),-0.0129
